The results in this text go back to publication PMC4336329 (PLoS ONE, 2015).

Hit rate of the full screen: of about 310,000 compounds, about 14,000 (4.5%) showed an effect of 50% or more. Effects have a minus sign here. This is one part of the list.
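Further: peak tail current of the secondary pulse compared with the same well before compound.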

Sequence of human ether-à-go-go-related gene (hERG) potassium channel (Q12809 whole entry, looked up): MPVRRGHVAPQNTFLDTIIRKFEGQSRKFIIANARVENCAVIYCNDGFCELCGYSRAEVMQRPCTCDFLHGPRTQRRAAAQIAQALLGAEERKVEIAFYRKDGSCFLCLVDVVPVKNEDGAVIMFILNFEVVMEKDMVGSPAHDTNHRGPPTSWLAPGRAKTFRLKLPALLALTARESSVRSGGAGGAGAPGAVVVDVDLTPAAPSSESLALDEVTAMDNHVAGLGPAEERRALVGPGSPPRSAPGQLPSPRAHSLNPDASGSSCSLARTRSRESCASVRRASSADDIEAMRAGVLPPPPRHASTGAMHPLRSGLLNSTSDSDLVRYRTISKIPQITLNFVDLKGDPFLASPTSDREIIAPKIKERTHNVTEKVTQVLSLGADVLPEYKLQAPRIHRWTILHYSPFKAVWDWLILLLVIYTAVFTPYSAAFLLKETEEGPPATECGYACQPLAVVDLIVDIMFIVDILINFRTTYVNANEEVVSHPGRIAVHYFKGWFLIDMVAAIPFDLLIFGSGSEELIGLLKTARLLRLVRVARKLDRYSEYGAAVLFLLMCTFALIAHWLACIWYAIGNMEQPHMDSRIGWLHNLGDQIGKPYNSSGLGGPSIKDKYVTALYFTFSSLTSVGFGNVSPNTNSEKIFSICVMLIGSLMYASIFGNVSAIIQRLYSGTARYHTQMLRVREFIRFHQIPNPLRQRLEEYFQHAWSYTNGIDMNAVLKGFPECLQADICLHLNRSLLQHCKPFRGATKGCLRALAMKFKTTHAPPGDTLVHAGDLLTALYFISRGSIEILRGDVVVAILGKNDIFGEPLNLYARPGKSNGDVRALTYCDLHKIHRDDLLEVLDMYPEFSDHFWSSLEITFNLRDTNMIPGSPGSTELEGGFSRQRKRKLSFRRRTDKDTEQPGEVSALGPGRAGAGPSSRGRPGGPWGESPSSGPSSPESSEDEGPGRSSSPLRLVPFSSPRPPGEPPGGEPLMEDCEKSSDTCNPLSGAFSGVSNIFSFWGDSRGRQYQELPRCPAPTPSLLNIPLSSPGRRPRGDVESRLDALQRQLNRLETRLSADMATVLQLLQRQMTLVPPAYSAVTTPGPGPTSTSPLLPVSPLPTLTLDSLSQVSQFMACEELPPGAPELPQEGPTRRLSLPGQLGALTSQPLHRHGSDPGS

The test addresses human ether-à-go-go-related gene (hERG) potassium channel (human, UniProt Q12809). Put plainly: primary screen, population patch clamp on CHO cells stably expressing hERG.
With `COc1cccc(CC(=O)N2CCCC(CCC(=O)N3CCN(c4ccccn4)CC3)C2)c1` (centres unmarked), the “hERG current change (%, negative = inhibition) at 10uM” value is given as -41.3%.

For the molecule `O=C(NCC(=O)N1CCOCC1)OCc1ccccc1`, the “hERG current change (%, negative = inhibition) at 10uM” value is reported as -30.8%. Under `COc1ccccc1NC(=O)c1c(C)nc2ccccc2c1C(=O)O` stands 2.78%. In the case of `O=C(Nc1ccnn1C1CCN(Cc2cc(Cl)ccc2O)CC1)C1CC1` it was -55%; in that of `O=C(NC1CCc2ccccc21)C12CN(Cc3ccccc3)CC1C(c1cccc([N+](=O)[O-])c1)=NO2` (centres unmarked), -1.84%; in that of `Cc1ccc(NC(=O)CCc2nnc3ccc(NCc4ccco4)nn23)cc1`, -2.39%. Consider `c1ccc(-c2n[nH]c(-c3ccccn3)n2)cc1`, for which the “hERG current change (%, negative = inhibition) at 10uM” value is on record as 12.4%. Under `Cc1cc(=O)c2c(O)c(O)ccc2o1` stands 8.73%; under `COC(=O)c1c(NC(=O)CSc2nnc(-c3cccnc3)n2Cc2ccco2)sc(C)c1C`, -59.3%.

On to `O=C(CC1C(=O)NCCN1CC1CCCCC1)NCCc1ccc(F)cc1` (centres unmarked), for which the “hERG current change (%, negative = inhibition) at 10uM” value was -51.6%. In the case of `COc1ccc(CN(C)C(=O)CCN2C(=O)c3ccccc3C2=O)c(OC)c1OC` it was -2.22%; in that of `NS(=O)(=O)c1ccc(CNC(=O)c2ccccn2)cc1`, 26.5%. In the case of `CCOC(=O)C1CN(S(=O)(=O)c2ccc(OC)cc2)c2cc(S(=O)(=O)CC)ccc2O1` (centres unmarked) it was -52%; in that of `Cc1[nH]nc(N2CCCCC2)c1[N+](=O)[O-]`, -6.37%; in that of `CCCCc1cc(=O)oc2cc(C)cc(OC(C)C(=O)NCc3ccncc3)c12` (centres unmarked), -36%. In the case of `O=C(COC(=O)COc1ccccc1)Nc1ccc(S(=O)(=O)N2CCOCC2)cc1` it was 4.09%; in that of `CCOC(=O)/C=C/[C@H]1Cc2ccccc2CO1`, 2.69%; in that of `CCCCSCc1nc2ccccn2c1Br`, 13.3%. Consider `Cc1ccc(OCc2nc(C#N)c(N3CCN(Cc4ccccc4)CC3)o2)cc1`, for which the “hERG current change (%, negative = inhibition) at 10uM” value was -6.23%. As for `O=C(COc1ccc(F)cc1)NN1C(=O)CSC1=S`, the “hERG current change (%, negative = inhibition) at 10uM” value stood at 28.5%. In the case of `Cc1ccc(/C=N\NC(=O)c2ccc(Cn3cc(Br)c([N+](=O)[O-])n3)o2)o1` it was 8.71%. Under `O=C(NCCCn1ccnc1)c1noc2c1CCc1ccccc1-2` stands -45.9%; under `COc1ccc(S(=O)(=O)N2CCCN(CC(=O)Nc3ccc(NC(C)=O)cc3)CC2)cc1`, 2.8%. In the case of `COc1ccccc1-n1cnnc1SCC(=O)c1c[nH]c2ccccc12` it was 21.2%; in that of `O=S(=O)(Nc1ccccc1N1CCCCC1)c1ccc(F)cc1`, -8.92%. Regarding `Cc1ccc2nc(NC(=O)c3cccc(-c4cc5ccccc5oc4=O)c3)sc2c1`, the “hERG current change (%, negative = inhibition) at 10uM” value turned out to be 12.9%. On to `Nc1c(S(=O)(=O)c2cccs2)c2nc3ccccc3nc2n1Cc1ccc2c(c1)OCO2`, for which the “hERG current change (%, negative = inhibition) at 10uM” value was determined as 2.09%. In the case of `Cc1ccc(C(=O)NC2CCS(=O)(=O)C2)cc1S(=O)(=O)N1CCOCC1` (centres unmarked) it was -13.3%; in that of `CCCOc1ccc(C(C)(O)CN2CCOCC2)cc1` (centres unmarked), 15.6%. On to `COC(=O)c1ccc(CN2CCCC(C(=O)Nc3cccc(-n4cnnn4)c3)C2)cc1` (centres unmarked), for which the “hERG current change (%, negative = inhibition) at 10uM” value is recorded as -47.7%. Under `S=c1[nH]nc(COc2ccccc2)n1/N=C/c1ccc(Br)cc1` stands 25.1%; under `Cc1ccc(C(=O)CSc2nnc(CNc3ccc(C)cc3C)o2)cc1`, -10.7%.

For the molecule `O=C(O)c1ccccc1Nc1ccc(OC(F)F)cc1`, the “hERG current change (%, negative = inhibition) at 10uM” value is 20.6%. For `O=c1ccc(Oc2nc(N3CCOCC3)nc(N3CCOCC3)n2)nn1-c1ccccc1`, the “hERG current change (%, negative = inhibition) at 10uM” value is -5.35%.

Take `CCN(C(=O)COC(=O)c1n[nH]c2ccccc12)c1ccccc1`: the “hERG current change (%, negative = inhibition) at 10uM” value is reported as -0.447%.

Regarding `CSc1ccc(-c2sc(Nc3ccccc3)n[n+]2-c2ccccc2)cc1.[Cl-]`, the “hERG current change (%, negative = inhibition) at 10uM” value is given as -46.2%. Under `Cc1ccccc1NC1=C(Cl)C(=O)OC1OC(=O)c1ccco1` (centres unmarked) stands 5.17%; under `Cc1ccc(S(=O)(=O)N/N=C\c2cccnc2)cc1`, -4.07%. Under `COc1cccc(C(C)NC(=O)C2CCCC2)c1` (centres unmarked) stands 1.04%; under `Cc1ccc(/C=C/C(=O)OCn2nnc3ccccc3c2=O)o1`, 7.85%. For the molecule `Cc1cc(C)nc(/N=C(\N)Nc2ccc(-c3ccccc3)cc2)n1`, the “hERG current change (%, negative = inhibition) at 10uM” value is -81.6%. Under `Cc1[nH]c(=O)[nH]c(=O)c1S(=O)(=O)N1CCCCC1` stands 21.3%. Under `O=C(COc1ccccc1)NNC(=S)NC(=O)c1ccc(Cl)cc1Cl` stands 14%; under `COc1ccc(OC)c(/C=C/C(=O)Nc2ccc3c(c2)CCC3)c1`, 7.15%. Under `COc1cc2nc(C3CCC3)n(NC(=O)COc3ccccc3)c(=O)c2cc1OC` stands 14.9%; under `COc1ccc(CCNC(=O)CC(Cc2ccc(C)cc2)C(=O)O)cc1OC` (centres unmarked), 5.06%; under `Cc1[nH]c2ccccc2c1C(=O)COC(=O)c1ccc2c(=O)n3c(nc2c1)CCC3`, 36.6%. Turning to `O=C(c1ccc(F)cc1)[C@@H]1[C@@H](C(=O)c2ccccc2)[C@@]2(C(=O)Nc3ccccc32)[C@H]2c3ccccc3C=CN12`, the “hERG current change (%, negative = inhibition) at 10uM” value was found to be 4.11%.

With `Cc1ccc(N=Cc2c(O)n(-c3ccc4c(c3)OCO4)c(=O)c3ccccc23)cc1`, the “hERG current change (%, negative = inhibition) at 10uM” value is 7.77%. Under `O=C(COC(=O)c1ncc(Cl)c(Cl)c1Cl)NC(=O)c1ccccc1` stands 14.9%; under `COc1ccccc1CNC(=S)NC1CCCCC1`, -3.19%. With `CC(CCc1ccccc1)NC(=O)C(=O)NCc1ccccc1` (centres unmarked), the “hERG current change (%, negative = inhibition) at 10uM” value came to 12.6%. In the case of `COC(=O)c1cc(NC(=O)c2c(-c3c(Cl)cccc3Cl)noc2C)ccc1N1CCOCC1` it was -2.79%. Under `Cc1ccc2cc(C)c3nnc(SCC(=O)N4CCN(C(=O)c5ccco5)CC4)n3c2c1` stands -14.6%. In the case of `Cc1cccc(C(=O)Nc2cccc3c2CCCC3)c1` it was 23.1%. Regarding `CN(C)S(=O)(=O)Nc1cccc(NC(=O)CC23CC4CC(CC(C4)C2)C3)c1`, the “hERG current change (%, negative = inhibition) at 10uM” value is -2.88%.
